In ChEMBL document CHEMBL1201862, “PubChem BioAssay data set” (2004):

The molecules below were run on NCI-H322M (assay: inhibition of tumour cell growth, NCI panel, 48 h).

Row | Structure (SMILES) | GI50
1 | Cc1ncc([N+](=O)[O-])n1CCNC(=O)CCn1ccnc1[N+](=O)[O-] | inactive: > 100 µM
2 | CSc1nc(O)c(C#N)c(-c2ccc(Cl)cc2)n1 | inactive: > 100 µM
3 | c1ccc(CCc2cccnc2)nc1 | inactive: > 100 µM
4 | Cc1nc(O)c(Cc2ccccc2O)c(-c2ccccc2)n1 | inactive: 37.4 µM
5 | O=C1CCC2(c3ccccc3)Nc3cc(Cl)ccc3N12 (stereo not drawn) | inactive: 23.3 µM
6 | O=c1c2cc(Br)cc(Br)c2nc(CCCl)n1-c1ccc(O)c([N+](=O)[O-])c1 | inactive: 17.9 µM
7 | ON/N=C/c1cc2c(cc1Br)OCO2 | inactive: > 386 µM
8 | COc1cc2cc(C(=O)N3C[C@H](CCl)c4c3cc(N)c3ccccc43)[nH]c2c(OC)c1OC | active: 0.138 µM
9 | COc1ccc(O)c(/C=N/NC(=S)N2CCCCC2)c1 | inactive: 4.5 µM
10 | O=C1CSC(c2cccc(Cl)c2)N1c1c(O)c(Cl)cc(Br)c1Cl (stereo not drawn) | inactive: > 100 µM
11 | N=C(N)NS(=O)(=O)c1ccc(NNc2c3ccccc3nc3c(C(=O)Nc4ccc(S(=O)(=O)Nc5ncccn5)cc4)cccc23)cc1 | inactive: 38.5 µM
12 | O=c1[nH]c(=O)n(C2OC(CO)C(O)C2O)c2nc(-c3ccc(-c4ccccc4)cc3)cnc12 (stereo not drawn) | inactive: > 100 µM
13 | COc1c(C2=NC(C(C)C)CO2)ccc2ccccc12 (stereo not drawn) | inactive: 62.7 µM
14 | Cc1[nH]c(=O)nc(S)c1C(=O)Nc1cccc2cc3ccccc3cc12 | inactive: > 100 µM
15 | C/C(O)=C1\CC2CN3CCc4c([nH]c5ccccc45)C3CC2CC1=O (stereo not drawn) | inactive: 91.4 µM
16 | CCOC(=O)CCc1c(C(=O)OCC)[nH]c(/C=C2/NC(=O)C(C)=C2CC)c1C | inactive: > 100 µM
17 | CC[n+]1c(/C=C/c2cc(C(=O)OC)n3c2sc2ccccc23)sc2ccccc21 | inactive: 16.3 µM
18 | C/C(Nc1ccc(F)cc1)=C1/CCOC1=O | inactive: > 100 µM
19 | CC(C)=CC(=O)N1CCN(C(=O)C=C(C)C)CC1 | inactive: > 100 µM
20 | COc1cc(/C=N/N=C(\N)NO)c(Cl)cc1O | inactive: 11.7 µM
21 | CN(C(=O)Cc1cc(Cl)c(Cl)cc1N=C=S)[C@H]1CCCC[C@@H]1N1CCCC1 | inactive: 15.4 µM

Row | Structure (SMILES) | GI50
22 | COc1ccc(NC(=O)CC(=O)n2nc(-c3ccccc3)c(/N=N/c3ccccc3C)c2-c2ccccc2)cc1 | inactive: > 100 µM
23 | Cc1cccc2nc(-c3ccccc3)cc(=O)n12 | inactive: > 100 µM
24 | N#Cc1cccc(C2C(=O)c3ccc(C(=O)c4ccc5c(c4)C(=O)N(c4ccc(Oc6ccc(N7C(=O)c8ccc(C(=O)c9ccc%10c(c9)C(=O)N(c9cccc(C#N)c9)C%10=O)cc8C7=O)cc6)cc4)C5=O)cc3C2=O)c1 (stereo not drawn) | inactive: > 100 µM
25 | CC1(C)CCCCC1/C=C/C(CC(O)(C(F)(F)F)C(F)(F)F)=N\Nc1ccc([N+](=O)[O-])cc1[N+](=O)[O-] (stereo not drawn) | active: 0.282 µM
26 | CC1CCC2C(C)(C)CC3(C)CCC1C23O (stereo not drawn) | inactive: 20.7 µM
27 | O=c1c2cc3ccccc3n2c(=O)c2cc3ccccc3n12 | inactive: > 100 µM
28 | O=C(Cc1nc2ccccc2s1)Nc1cccc(C(F)(F)F)c1 | inactive: 13.9 µM
29 | CCCCNC(=S)Nn1c(-c2ccccc2)nc2ccccc2c1=O | inactive: > 100 µM
30 | CC[C@@]1(OP(=O)(O)O)C(=O)OCc2c1cc1n(c2=O)Cc2cc3ccccc3nc2-1 | active: 0.6 µM
31 | Cc1ccc(/C=C2\CCCCC2=O)cc1 | inactive: > 100 µM
32 | CCCCc1ccc(-n2sc3ncc(C)cc3c2=O)cc1 | inactive: > 100 µM
33 | CC(=O)c1cccc(NC(=O)C(=O)C(c2cnc3ccc([N+](=O)[O-])cc3n2)[N+](=O)[O-])c1 (stereo not drawn) | inactive: > 100 µM
34 | COc1cc2c(cc1O)C1C(O)C(O)C=C3CCN(C2)C31 (stereo not drawn) | inactive: 2.52 µM
35 | CC/C(=N/O)c1ccc(Br)s1 | inactive: > 100 µM
36 | COC(=O)C(C(=O)C(=O)Nc1ccc(Br)cc1)c1nc2ccc(Cl)cc2nc1O (stereo not drawn) | inactive: > 100 µM
37 | O=C1Nc2ccccc2C(=O)/C1=C/NC(=S)NC1CCCCC1 | inactive: > 100 µM
38 | COC(=O)C1=C(OC(=O)/C=C/c2ccccc2)C(C(=O)OC)[C@@]2(O)[C@@H](C(=O)OC)[C@H](C)C[C@@H]1[C@@H]2C(=O)OC (stereo partly drawn) | inactive: 24.1 µM
39 | CCc1c2c(cc3c1CC1(C3)Cc3cc4c(c(C(=O)OC)c3C1)CCCC4)CCCC2 (stereo not drawn) | inactive: > 100 µM
40 | CC1(C)c2ccccc2N2C(c3ccccc3)=NOC21C (stereo not drawn) | inactive: > 100 µM
41 | OCC1OC(n2cnc3c(Cl)nc(Nc4ccccc4)nc32)CC1O (stereo not drawn) | inactive: 94.4 µM
42 | O=C1C(Cl)=C(N2CCN(c3ncccn3)CC2)C(=O)c2c(O)ccc(O)c21 | inactive: 3.79 µM

Row | Structure (SMILES) | GI50
43 | COC(=O)C(C)Sc1nc2cc(Cl)ccc2s1 (stereo not drawn) | inactive: > 100 µM
44 | CCOC(=O)NC(=O)c1cn(CCN2CCN(C(=O)NCCCCCCNC(=O)N3CCN(CCn4cc(C(=O)NC(=O)OCC)c(=O)n(CCN(CC)CC)c4=O)CC3)CC2)c(=O)n(CCC(CC)CC)c1=O | inactive: > 100 µM
45 | Cc1cc(C(=O)NCCN(C)C)c2nc3ccccc3nc2c1 | inactive: 4.08 µM
46 | CNC(=O)[C@H](Cc1ccccc1)NC(=O)N(CCC#N)CCN(C(=O)N[C@@H](Cc1ccccc1)C(=O)OC)c1ccccc1 | inactive: > 100 µM
47 | NCCC(N)C(=O)O (stereo not drawn) | inactive: > 100 µM
48 | COc1ccc(CC2c3cc(Oc4cc(CC5c6cc(OC)c(OC)cc6CCN5C)ccc4O)c(OC)cc3CCN2C)cc1 (stereo not drawn) | inactive: 7.62 µM
49 | Cc1nc2sccn2c1C(=O)N/N=C1\SCC(=O)N1C | inactive: > 100 µM
50 | CCOC(=O)NC(Nc1cc(Cl)ccc1OC)(C(F)(F)F)C(F)(F)F | inactive: > 100 µM
51 | CCCN(CCC)C(=S)Sc1nc(C)nc(N2CCN(c3nc(C)nc(SC(=S)N(CCC)CCC)c3[N+](=O)[O-])CC2)c1[N+](=O)[O-] | inactive: 27.2 µM
52 | COc1cccc(NC(=O)c2c(N)n[nH]c2SC)c1 | inactive: > 100 µM
53 | Cc1ccc([S+](c2ccccc2)c2cc(C)ccc2C)cc1.O=C(OC(C(=O)[O-])C(OC(=O)c1ccccc1)C(=O)O)c1ccccc1 (stereo not drawn) | inactive: 26.8 µM
54 | CCC(=O)Nc1cccc(/N=C/c2ccc(OC(=O)/C=C\c3ccccc3)cc2)c1 | inactive: > 75 µM
55 | CN(Cc1cnc2c(n1)C(N)=NN(N)N2)c1ccc(C(=O)NC(CCP(=O)(O)O)C(=O)O)cc1 (stereo not drawn) | inactive: > 25.6 µM
56 | O=C1CC(c2ccccc2Cl)C2(C(=O)NC(=S)NC2=O)C(c2ccccc2Cl)C1 (stereo not drawn) | active: 0.252 µM
57 | Cn1c(=O)sc2cc(C(=S)N3CCC(Cc4ccccc4)CC3)ccc21 | inactive: > 100 µM
58 | O=C(O)c1ccccc1/N=N/c1ccc2oc(=O)c(C(=O)Nc3ccccc3)cc2c1 | inactive: 41.1 µM
59 | CCOC1OC(CO[Si](C)(C)C(C)(C)C)C(O)CC1n1ccc(=O)[nH]c1=O (stereo not drawn) | inactive: > 100 µM
60 | CCCCC(C(=O)C(=O)NC1C2CC3CC(C2)CC1C3)C(=O)C(C)C (stereo not drawn) | inactive: > 100 µM
61 | CC(C)C(CCOS(=O)(=O)O)CCC(C)[C@H]1[C@@H](O)C(O)C2[C@]3(O)C[C@@H](O)C4(O)C[C@@H](O)CC[C@]4(C)C3CC[C@@]21C (stereo partly drawn) | inactive: > 100 µM
62 | CCCCCCCOc1ccc(/C=C\c2cc[n+](CCCCCCCC[n+]3ccc(/C=C\c4ccc(OCCCCCCC)cc4)cc3)cc2)cc1 | inactive: 16 µM
63 | O=C(CCCn1cnc([N+](=O)[O-])n1)NCCn1ccnc1[N+](=O)[O-] | inactive: > 100 µM

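Assay format: 96-well plates, 48-hour exposure. GI50 is the concentration that inhibits growth by half.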 Activity calls are given as the source filed them. Rule as the data show it: active = GI50 up to about 1.1 µM and inactive = higher.
